# Measurements: PubChem BioAssay AID504832 (National Center for Advancing Translational Sciences (NCATS), 2011)
# Screen size: about 310,000 compounds; about 18,000 (5.8%) were called active. The inconclusive results got no clear call from the source; some entries with a clear call stand among them for comparison. Calls follow the shape of the dose curve; as a rule, active = well fitted inhibition curve with a large enough effect; inconclusive = small, poorly fitted or top-dose-only effect, or another doubt; inactive = no such curve, though single readings can be large or run the other way. Potencies of inconclusive entries are left out as doubtful fits.
# Test: Primary qHTS for delayed death inhibitors of the malarial parasite plastid, 48 hour incubation
# Conditions: P. falciparum luciferase growth in erythrocytes; series mostly up to 28.7 µM; activity change, negative = inhibition: at the top concentration
# Method in brief: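 First compound was added to culture medium, then infected red cells at 0.1% parasitemia and 2% hematocrit (final). After incubation at 37 C under 5% CO2, luciferase detection reagent was dispensed and light output recorded.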
# % is scaled to controls: 0 for no effect and ±100 for the full control effect; potency is read from the fitted curve at half-maximal effect; tags tell the direction and shape of the fitted curve.
Compound,Potency,"activity change, negative = inhibition"
CN(C)c1ccc(CC(=O)c2nc3ccccc3s2)cc1,"inconclusive [inhibitor, single point]",–
Cc1nn(Cc2ccccc2)c(C)c1C(=O)NCC(c1cccs1)N1CCOCC1 (stereo unspecified),"inconclusive [inhibitor, single point]",–
O=C(Oc1ccc2ccc(=O)oc2c1)C1CCCCC1,–,inactive: 0.424%
COC(=O)c1ccc(COC(=O)CCC(=O)c2cccs2)cc1,–,inactive: 30%
CCN(CC)S(=O)(=O)c1ccc(N2CCOCC2)c(NC(=O)C(C)Oc2ccc(F)cc2)c1 (stereo unspecified),active: 4.65 µM,–
Cc1cc2c(cc1C)CSC(c1ccc3ccccc3c1O)SC2,active: 9.28 µM,–
CCOC(=O)CSc1nc2c(c(=O)[nH]c(=O)n2C)n1CCCc1ccccc1,"inconclusive [inhibitor, partial curve, poor fit]",–
Cc1c(C(=O)N2CCCCCC2)nnn1-c1nonc1N,"inconclusive [inhibitor, partial curve, poor fit]",–
CC(=O)N1CCc2c(sc(NC(=O)C3CCCN3S(=O)(=O)c3cccs3)c2C(N)=O)C1 (stereo unspecified),"inconclusive [inhibitor, partial curve]",–
CN(C)c1ccc(N2C(=NC(=O)CCc3ccccc3)SC3CS(=O)(=O)CC32)cc1 (stereo unspecified),"inconclusive [inhibitor, single point]",–
CC(C)(C)C(=O)Nc1nnc(SCC(=O)NC2CCCCC2)s1,–,inactive: -0.611%
CC(C)CNC(=O)/C=C/C=C/CCCC/C=C/c1ccc2c(c1)OCO2,"inconclusive [inhibitor, single point]",–
CCOC(=O)c1c(-c2ccc(C)o2)csc1NC(=O)COC(=O)c1ccc(NC(N)=O)cc1,active: 8.28 µM,–
CC(NC(=O)c1cccc(S(=O)(=O)N2CCN(Cc3ccccc3)CC2)c1)c1ccc(Cl)cc1 (stereo unspecified),"inconclusive [inhibitor, single point]",–
Cc1cccn2c(CNC3CCCc4ccccc43)c(C(=O)N3CCOCC3)nc12 (stereo unspecified),–,inactive: -22.1%
CC(=O)c1cccc(CN2CCN(CCc3ccccc3)C(CCO)C2)c1 (stereo unspecified),"inconclusive [inhibitor, single point]",–
NC1=NC(=O)C2(COC(c3cccnc3)OC2)S1 (stereo unspecified),–,inactive: -0.874%
CC(C)CN1CCC(=O)N([C@H](CO)Cc2ccccc2)CC1,–,inactive: 35.1%
O=C(Nc1csc([N+](=O)[O-])c1)Nc1c(Cl)cccc1Cl,"inconclusive [inhibitor, partial curve]",–
COc1cc(/C=C2\SC(=S)N(NC(=O)c3ccc(O)c(OC)c3)C2=O)ccc1O,–,inactive: 0.628% [at 0.00184 µM]
CC(=O)N1CN(C2CC(C)(C)NC(C)(C)C2)Cc2c1sc1c2CCCC1,active: 11.7 µM,–
COc1ccc(-c2cc(N)n(S(=O)(=O)c3c(F)c(F)c(F)c(F)c3F)n2)cc1OC,"inconclusive [inhibitor, single point]",–
CCC(Cc1ccccc1)NS(=O)(=O)c1c(C)nc2sccn2c1=O (stereo unspecified),–,inactive: -6.1%

Compound,Potency,"activity change, negative = inhibition"
COc1ccc(C(=O)CSc2nccn2C)c(OC)c1,–,inactive: 135%
Cc1ccc(NC(=O)CCn2cnc3cc(C)c(C)cc32)cc1,"inconclusive [inhibitor, partial curve, poor fit]",–
CCOC(=O)Cc1csc(NC(=O)COc2ccc(C)c(C)c2)n1,–,inactive: 121%
CCC(C)[C@H](NC(=O)N1CC(=O)Nc2ccccc21)C(=O)NC(C)CCc1ccccc1 (stereo partly specified),"inconclusive [inhibitor, partial curve, poor fit]",–
CCCN1CCC(N2CCN(c3cccc(C(F)(F)F)c3)CC2)CC1,"inconclusive [inhibitor, single point]",–
c1ccc(CSc2nnc3c(n2)OC(c2ccco2)Nc2ccccc2-3)cc1 (stereo unspecified),"inconclusive [inhibitor, partial curve, poor fit]",–
COCCn1c(SCC(=O)Nc2cc(C)nn2-c2ccccc2)nnc1-c1ccncc1,–,inactive: 12.3%
Cc1ccc(Nc2nnc(SCC(=O)NC(Cc3c[nH]c4ccccc34)C(=O)O)s2)cc1 (stereo unspecified),–,inactive: 42.7%
COc1ccc(C2SCCN2C(=S)Nc2cccc(C(F)(F)F)c2)cc1 (stereo unspecified),active: 2.33 µM,–
NC(=O)c1ccc(Oc2ncc(C(F)(F)F)cc2Cl)cc1,"inconclusive [inhibitor, single point]",–
O=C(CN(Cc1ccccc1C(F)(F)F)C(=O)CNC(=O)c1ccco1)NC1CCCC1,"inconclusive [inhibitor, single point]",–
CCOc1ccc(CCNC(=O)C2=C(C)C(=O)OC23CCC(C)CC3)cc1 (stereo unspecified),–,inactive: -3.53%
COc1cc(C)c(S(=O)(=O)NOCc2ccccc2)c(C)c1C,–,inactive: -12.4%
CCCN(CC(=O)Nc1ccc(Cl)cc1Cl)C(=O)/C=C/c1cc(OC)ccc1OC,–,inactive: 15.4%
COc1cc2c(cc1OC)CN(CC(=O)Nc1ccccc1C#N)CC2,"inconclusive [inhibitor, single point]",–
COCCn1c(-c2ccccc2)nc2c(c(=O)c3ccccc3n2C)c1=O,"inconclusive [inhibitor, single point]",–
O=C(O)C1CSC(c2coc3ccccc3c2=O)N1 (stereo unspecified),–,inactive: -8.32%
CCCn1nc(NC(=O)c2ccco2)c2cc3cc(C)ccc3nc21,"inconclusive [inhibitor, partial curve, poor fit]",–
COCCOC(=O)c1c(C)oc2ccc(OC(=O)c3c(OC)cccc3OC)cc12,"inconclusive [inhibitor, single point]",–
CCOC(=O)CCCNC(=O)CN1C(=O)NC(c2ccccc2)(c2ccccc2)C1=O,"inconclusive [inhibitor, full curve]",–
Cc1ccc(/C=C/C(O)=C2/C(=O)N(C)C3(C)CC2c2ccccc2O3)cc1 (stereo unspecified),active: 11.7 µM,–
CCN(c1ccc(NC(=O)COC(=O)CCC(=O)c2ccc(F)cc2)cc1)C(C)C,–,inactive: 18.8%
Cc1ccc(S(=O)(=O)N(C)c2nc3ccccc3n3c(C(C)C)nnc23)cc1,"inconclusive [inhibitor, partial curve, poor fit]",–
